Measurements as given in PubChem BioAssay AID624417 (National Center for Advancing Translational Sciences (NCATS), 2012).
Hit rate of the full screen: of about 410,000 compounds, about 6,400 (1.6%) were called active. The shares of active, inactive and inconclusive entries below differ from those in the screen. Calls come from the whole dose curve; as a rule, active = well fitted inhibition curve with a large enough effect; inconclusive = small, poorly fitted or top-dose-only effect; inactive = no such curve, though single readings can be large or run the other way. Potencies of inconclusive entries are left out as doubtful fits.
% is set by controls: 0 for no effect and ±100 for the full control effect; potency is the fitted concentration of half-maximal effect; tags give direction and shape of the fitted curve.
Note: nearly all actives have a fitted effect of over 55% in size.

What follows are compounds tested against Glucagon-like peptide 1 receptor (Homo sapiens) (UniProt P43220) (assay: qHTS of GLP-1 Receptor Inverse Agonists (Inhibition Mode)). Settings: HEK293 GLP-1R CRE-luciferase, luminescence, 24 h, GLP-1R form is constitutively active; activity change, negative = inhibition: at 38.3 µM (top of the series) unless noted.
Sequence of UniProt P43220 (P43220 whole entry, looked up): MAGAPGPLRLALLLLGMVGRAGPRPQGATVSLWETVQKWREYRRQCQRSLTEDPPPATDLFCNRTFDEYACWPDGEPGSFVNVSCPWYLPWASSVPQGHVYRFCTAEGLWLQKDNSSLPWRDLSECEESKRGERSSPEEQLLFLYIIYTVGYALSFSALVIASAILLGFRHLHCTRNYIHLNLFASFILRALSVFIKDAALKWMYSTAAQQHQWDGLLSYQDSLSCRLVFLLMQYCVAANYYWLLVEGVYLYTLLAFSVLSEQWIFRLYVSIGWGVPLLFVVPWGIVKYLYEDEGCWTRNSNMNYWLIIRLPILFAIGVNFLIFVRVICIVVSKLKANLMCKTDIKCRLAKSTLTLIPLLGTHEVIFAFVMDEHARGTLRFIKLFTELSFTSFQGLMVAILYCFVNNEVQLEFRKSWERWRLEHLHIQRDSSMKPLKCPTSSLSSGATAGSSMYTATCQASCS
Method in brief: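 Using stably transfected HEK293 (constitutively active GLP-1R, cAMP-luciferase reporter), compounds were incubated 24 hr and luciferase measured by luminescence.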
With `Cc1ccc(C)c(N2CCN(CC(=O)Nc3ccc4[nH]c(=O)[nH]c4c3)CC2)c1` the “activity change, negative = inhibition” value was inactive: 7.72%. With `O=C(Nc1nc(-c2ccc3c(c2)OCO3)cs1)C1CC1` the Potency was inconclusive [inhibitor, single point]. In the case of `O=C(NC1CCCC1)C(c1cccs1)N(C(=O)c1ccco1)c1ccc2c(c1)OCO2` (configuration not stated), the Potency was inconclusive [inhibitor, single point]. With `C[C@H]1CN=C(N(C)C)N1CC1CCC(C(C)(C)C)CC1` (some centres not stated) the Potency was inconclusive [inhibitor, partial curve, poor fit]. With `c1nc(CCO[C@H]2CCCCO2)cc2cc3c(cc12)OCO3` the Potency was inconclusive [inhibitor, partial curve, poor fit]. With `Cc1cccc(C)c1C(=NCCCN(C)C)c1ccccc1` the “activity change, negative = inhibition” value was inactive: -24.1%. In the case of `C=CC(=O)N1C/C(=C/c2ccc(Cl)cc2)C(=O)/C(=C\c2ccc(Cl)cc2)C1`, the Potency was inconclusive [inhibitor, full curve, poor fit]. With `COc1cc(/C=C/C(=O)OCC(=O)Nc2ccc(C)c(S(=O)(=O)N3CCCCC3)c2)ccc1O` the Potency was inconclusive [inhibitor, single point]. With `NC(c1csc(NC(=O)c2cccc(OC(F)(F)F)c2)n1)c1ccccc1Cl` (configuration not stated) the Potency was inconclusive [inhibitor, single point]. For `c1ccc2c(NCC3CCCO3)nc(N3CCCCC3)nc2c1` (configuration not stated), the Potency was inconclusive [inhibitor, single point]. With `COc1ccc(CCNC(=O)c2ccc(Cn3c(=O)c4ccccc4n(Cc4ccc(F)cc4Cl)c3=O)cc2)cc1OC` the “activity change, negative = inhibition” value was inactive: 21.1%. In the case of `CC(Oc1ccc(-c2ccccc2)cc1)C(=O)N/N=C/c1cccnc1` (configuration not stated), the Potency was inconclusive [inhibitor, partial curve, poor fit]. For `Oc1ccc2ccccc2c1CNc1ccc(Br)cc1`, the Potency was inconclusive [inhibitor, partial curve, poor fit]. For `CCC1CCCCN1CCN1C(=O)C2C(C(=O)Nc3ccc(OC)cc3)C3C=CC2(O3)C1C(=O)NC1CCCCC1` (configuration not stated), the Potency was inconclusive [inhibitor, single point]. With `COc1ccc(-n2c(=S)[nH]c3cc(C(=O)Nc4ccc(F)cc4)ccc3c2=O)c(OC)c1` the Potency was inconclusive [inhibitor, partial curve, poor fit]. `Cc1ccc(C(=O)N/C(=C\c2cccs2)C(=O)NCCc2c[nH]c3ccccc23)cc1` was tested, and the Potency was inconclusive [inhibitor, partial curve, poor fit]. `CC(=O)c1ccc(NC(=O)c2cc(S(=O)(=O)N3CCOCC3)ccc2C)cc1` was tested, and the Potency was inconclusive [inhibitor, single point].
